This passage reports Potency results from PubChem BioAssay (NCATS).

Records with an inconclusive call do not appear. The call rests on the fitted dose curve; in most records, active means well fitted curve in the direction sought with a large enough effect; inconclusive means small, poorly fitted or top-dose-only effect, or another doubt; inactive means no such curve, though single readings can be large; an effect the other way counts as inactive or inconclusive. Where a structure was tested more than once in an assay, its records may differ in their call. A number of entries come with more than one value. This is not the full list of results. There may be further records. Values that stand side by side are repeated measurements across runs, samples, wells, individuals or studies. Records carry a tag for their origin. The letters are not those of the source and start again with each entry.

The nature of assay [1]: qHTS of pediatric cancer cell lines to identify multiple opportunities for drug repurposing: Primary screen for DAOY cells (AID 1347090). Further: nearly all actives have a fitted effect of over 55% in size. The procedure, abridged: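 Cell viability, CellTiter-Glo luminescence; 500-1,000 cells/well, 8- or 11-point titration, 48 h compound exposure at 37 degrees C, 5% CO2. Controls: DMSO neutral, bortezomib 2.3 µM final as positive.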
For orientation: In qHTS, concentration-response curves come from the screen itself.

A short description of assay [2]: qHTS of pediatric cancer cell lines to identify multiple opportunities for drug repurposing: Primary screen for LAN-5 cells (AID 1347100). The essentials: (§1)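 Cells (500-1,000/well) rested 5 h, then received compounds for 48 h; metabolically active cells were measured by CellTiter-Glo luminescence. Final concentrations spanned up to 46 µM (MIPE, 11-point) or 0.59 nM-46 µM (NPC, 8-point) in primary screens, 11-point in follow-ups.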

A short description of assay [3]: qHTS of pediatric cancer cell lines to identify multiple opportunities for drug repurposing: Primary screen for SK-N-MC cells (AID 1347093).
Assay [4] in a line: qHTS of pediatric cancer cell lines to identify multiple opportunities for drug repurposing: Primary screen for NB1643 cells (AID 1347099). Further: nearly all actives have a fitted effect of over 50% in size.
The nature of assay [5]: qHTS of pediatric cancer cell lines to identify multiple opportunities for drug repurposing: Primary screen for RD cells (AID 1347104). Further: nearly all actives have a fitted effect of over 55% in size. The procedure, abridged:
(§2)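 Phenotypic viability qHTS, 48 h compound exposure, CellTiter-Glo luminescence read-out; multi-concentration dosing so that potency and efficacy derive directly from the primary screen's curves.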

The nature of assay [6]: qHTS of pediatric cancer cell lines to identify multiple opportunities for drug repurposing: Primary screen for Rh41 cells (AID 1347108). Further: nearly all actives have a fitted effect of over 70% in size. The procedure, abridged: as §2
Assay [7] is described as follows: qHTS of pediatric cancer cell lines to identify multiple opportunities for drug repurposing: Primary screen for BT-37 cells (AID 1347094). The procedure, abridged: as §2
Assay [8] in a line: qHTS of pediatric cancer cell lines to identify multiple opportunities for drug repurposing: Primary screen for SK-N-SH cells (AID 1347098). Further: nearly all actives have a fitted effect of over 65% in size. The procedure, abridged:
as §1

The nature of assay [9]: qHTS of pediatric cancer cell lines to identify multiple opportunities for drug repurposing: Primary screen for BT-12 cells (AID 1347101). Further: nearly all actives have a fitted effect of over 25% in size. The essentials:
as §1

The nature of assay [10]: qHTS of pediatric cancer cell lines to identify multiple opportunities for drug repurposing: Primary screen for OHS-50 cells (AID 1347103). Further: nearly all actives have a fitted effect of over 40% in size. The essentials: as §1
Potency means the concentration at half of the fitted maximal effect.

Regarding `COc1ccc(-c2ccc3cc(C(=O)O)ccc3c2)cc1C12CC3CC(CC(C3)C1)C2`, the Potency result is “inactive [sample A] and active: 7.43 µM [sample B]” in [1]; “active: 3.76 µM [sample A] and inactive [sample B]” in assay [2].

As to `O=S(=O)(O)CCS`, the Potency entry in assay [3] is “active: 2.64 µM [sample A] and inactive [sample B]”; in assay [4], “active: 14.8 µM [sample A] and inactive [sample B]”.

With `O=c1cc(O)c(Cl)c[nH]1`, the Potency result in [1] was “active: 11.8 µM [sample A] and inactive [sample B]”; in assay [3] it was “active: 1.48 µM [sample A] and inactive [sample B]”; in assay [4] it was “active: 1.48 µM [sample A] and inactive [sample B]”; in [5] it was “active: 2.96 µM [sample A] and inactive [sample B]”; in [6] it was “active: 4.69 µM [sample A] and inactive [sample B]”.

`CC(C(=O)O)c1ccc2c(c1)CC(=O)c1ccccc1S2` (configuration not stated): the Potency entry in assay [1] was “active: 46.9 nM [sample A] and inactive [sample B]”; in [3], “active: 33.2 nM [sample A] and inactive [sample B]”; in assay [7], “active: 2.17 µM [sample A] and inactive [sample B]”; in assay [8], “active: 24.1 µM [sample A] and inactive [sample B]”; in [4], “active: 1.48 µM [sample A] and inactive [sample B]”; in [9], “active: 2.43 µM [sample A] and inactive [sample B]”. The Potency entry was “active: 8.63 µM [sample A] and inactive [sample B]” in assay [10]; “active: 5.26 µM [sample A] and inactive [sample B]” in assay [5].
